Assay results published in PubChem BioAssay AID686978 (National Center for Advancing Translational Sciences (NCATS), 2013).
Screen size: about 420,000 compounds; about 64,000 (15%) were called active. The shares of active, inactive and inconclusive entries below differ from those in the screen. The call rests on the fitted dose curve; in most records, active means well fitted inhibition curve with a large enough effect; inconclusive means small, poorly fitted or top-dose-only effect; inactive means flat fitted curve, though single readings scatter. Potencies of inconclusive entries are left out as doubtful fits.

test: qHTS for Inhibitors of human tyrosyl-DNA phosphodiesterase 1 (TDP1): qHTS in cells in absence of CPT; conditions: DT40 Tdp1-/- hTDP1 cells, no CPT, ATP luminescence, 48 h; activity change, negative = growth inhibition: at 46.2 µM (top of the series) unless noted; further: nearly all actives have a fitted effect of over 55% in size
How it was run: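 Growth kinetics read by CellTiter-Glo luminescence after ≥48 hr at 37 °C. Cells: DT40 Tdp1-/- stably carrying human TDP1, 400 per well, compound exposure in the absence of CPT (DMSO vehicle).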
On the % scale 0 is the no-effect control and ±100 the full control effect; potency means the concentration at half of the fitted maximal effect; tags describe the fitted curve by direction and shape.

Row | Structure (SMILES) | Potency | activity change, negative = growth inhibition
1 | C[C@@]12C(=O)N(c3cccc(F)c3)C(=O)N1[C@H](c1ccc(F)cc1)[C@@H]1C(=O)N(C3CCCCC3)C(=O)[C@@H]12 | inconclusive [inhibitor, single point] | 
2 | Cc1ccc2c(c1)CC(C)N2S(=O)(=O)c1nnc(NC(=O)c2ccccc2F)s1 (centres undefined) | inactive | 
3 | O=C(CC1C(=O)NCCN1Cc1cccc(F)c1F)NCCCC1CCCC1 (centres undefined) | inactive | 
4 | CCCCCC(=O)N=Nc1c(O)[nH]c2ccc([N+](=O)[O-])cc12 |  | inconclusive: -30.5% [inhibitor]
5 | Cc1ccc(C(=O)Cn2cccn2)cc1 | inactive | 
6 | O=C(NCCCn1ccnc1)c1ccc(-c2cccc(Cl)c2Cl)o1 | inconclusive [inhibitor, single point] | 
7 | CCOc1ccc(NC(=O)CSc2nc(C)cc(C)n2)cc1 | inconclusive [inhibitor, partial curve] | 
8 | COCCN(Cc1ccc(C)c(Br)c1)C(=O)Cn1cnc(S(=O)(=O)N2CCCC2)c1 | inconclusive [inhibitor, single point] | 
9 | Cc1cc(/C=C2\Sc3ccccc3N2C)cc(C)[n+]1CC1CCCO1 (centres undefined) | active: 0.0259 µM | 
10 | O=C(COc1ccc(Br)cc1)N(Cc1ccco1)C1CCS(=O)(=O)C1 (centres undefined) | inactive | 
11 | Cc1ccccc1C(=O)NNC(=O)c1ccc(Br)cc1 | inconclusive [inhibitor, single point] | 
12 | CC(=O)N1c2ccccc2C(=O)C1N(C)c1ccc(C)cc1 (centres undefined) | inconclusive [inhibitor, partial curve] | 
13 | Cn1c(=O)c(-[n+]2ccccc2)c([O-])c2ccccc21 | inactive | 
14 | CCOc1ccc(CNC(=O)c2[nH]c3ccccc3c2Sc2ccc(C)cc2)cc1 | inconclusive [inhibitor, single point] | 
15 | CC1CCc2c(nc3nc[nH]n3c2=O)C1 (centres undefined) | inactive | 
16 | O=C(NC1CCCCC1)c1ccc(CNc2ccccc2)o1 | inconclusive [inhibitor, partial curve] | 
17 | O=C(C1CCN(C2CCN(Cc3ccc4cc(F)ccc4n3)CC2)CC1)N1CCCC1 | inactive | 
18 | CCCC(=O)Nc1cccc(NC(=O)c2cccc([N+](=O)[O-])c2C)c1 | inconclusive [inhibitor, single point] | 
19 | COc1ccc(N(CC(=O)NCCc2ccc(C)cc2)S(=O)(=O)c2c(C)noc2C)cc1 | inconclusive [inhibitor, single point] | 
20 | COC(=O)CSc1nccc(-c2ccc(F)cc2)c1C#N | inactive | 
21 | O=C(NCCCN1CCN(c2ccc(F)cc2)CC1)c1sc2ncccc2c1-n1cccc1 | inconclusive [inhibitor, single point] | 
22 | COc1ccc(OC)c(S(=O)(=O)N2Cc3ccccc3CC2C(=O)Nc2ccc(Cl)cc2)c1 (centres undefined) | inconclusive [inhibitor, single point] | 
23 | COc1ccc(S(=O)NC2CCCCC2)c(OC)c1C (centres undefined) | inactive | 
24 | CCN(CC)S(=O)(=O)c1cc(NC(=O)NCCCl)ccc1C | inconclusive [inhibitor, single point] | 
25 | CC(C)(C)NC(=O)COC(=O)c1c2c(nc3ccccc13)CCC2 | active: 9.2 µM | 

Row | Structure (SMILES) | Potency | activity change, negative = growth inhibition
26 | Cc1ccc2c(c1)C(=O)C(=O)N2Cc1ccc(OC(C)C)cc1 | active: 0.058 µM | 
27 | CCCC(=O)Nc1ccc(C(=O)NNC(=S)NC(=O)c2cccs2)cc1 | inconclusive [inhibitor, partial curve] | 
28 | O=C(/C=C/c1ccc(Cl)cc1)Nc1ccc(S(=O)(=O)Nc2ncccn2)cc1 | inactive | 
29 | CCOC(=O)c1cc(-c2ccccc2)n(CCC(=O)Nc2ccc(C)cc2Cl)c1C | inconclusive [inhibitor, single point] | 
30 | O=C(NCCc1ccccc1)C1CCCN1C(=O)Nc1ccccc1 (centres undefined) | inactive | 
31 | O=S1(=O)C[C@@H](N2CCN(CCO)CC2)[C@H](COCc2ccccc2)N1 | inactive | 
32 | Cn1c2ccccc2c(=O)c2cc(C#Cc3ccsc3)ccc21 |  | inconclusive: -30.4% [inhibitor]
33 | CCOc1ccccc1NC(=O)Cn1ncc2ccc([N+](=O)[O-])cc21 | inconclusive [inhibitor, single point] | 
34 | CSc1ccc(C(=O)c2[nH]c(=O)[nH]c2C)cc1 | inactive | 
35 | COc1ccccc1NC(=O)c1coc(=O)c(Br)c1 | active: 2.06 µM | 
36 | CC1CCCCN1c1nc(-c2ccncc2)nc2ccccc12 (centres undefined) | active: 18.4 µM | 
37 | CCC(C(=O)NC(C)(C)C)n1c(C(c2ccccc2)c2ccccc2)nc2ccccc21 (centres undefined) | inconclusive [inhibitor, single point] | 
38 | Cc1ccc(-n2nc(CO)c(C(=O)NCCCCc3ccccc3)n2)cc1 | inconclusive [inhibitor, single point] | 
39 | O=C(NCc1cccnc1)C(=O)NCC1OCCCN1S(=O)(=O)c1cc(F)ccc1F (centres undefined) | inactive | 
40 | CC(C)(C)c1ccc(C(=O)O/N=C(\N)c2ccccc2)cc1 | active: 13 µM | 
41 | CCOc1ccc(S(=O)(=O)NCCC(=O)NC2CCC(C)CC2)cc1 (centres undefined) | inconclusive [inhibitor, single point] | 
42 | COc1ccc(/C=C2\SC(=S)N(CCC(=O)NCCCN3CCOCC3)C2=O)cc1 | inconclusive [inhibitor, single point] | 
43 | Cc1cc(NC(=O)c2cc3ccccc3o2)ccc1NC(=O)c1ccccc1 | inconclusive [inhibitor, single point] | 
44 | CC1(c2nnnn2Cc2ccccc2)CCC(=O)N1CCCn1ccnc1 (centres undefined) | inactive | 
45 | CCOc1ccc(-c2nn(-c3ccccc3)cc2C2NC(=O)NC(C)=C2C(=O)OC(C)C)cc1C (centres undefined) | inconclusive [inhibitor, partial curve, poor fit] | 
46 | COc1ccc(NC(=O)C2CCCCN2N)cc1OC (centres undefined) | active: 18.4 µM | 
47 | CCCc1ccc(-c2csc(NC(=O)Cc3cccs3)n2)cc1 | inconclusive [inhibitor, partial curve, poor fit] | 
48 | O=c1ccc(-c2ccc([N+](=O)[O-])cc2)nn1-c1ccccc1 | inactive | 
49 | Cc1cccc(CNC(=O)Cc2ccc(NC(=O)N3CCCCc4ccccc43)cc2)c1 | active: 16.4 µM | 
50 | CCN(CC)CCn1c2c(c(SCC(=O)Nc3cccc(C(F)(F)F)c3)nc1=O)CCC2 | inconclusive [inhibitor, single point] | 

Row | Structure (SMILES) | Potency | activity change, negative = growth inhibition
51 | COc1cccc(CNC(=O)c2oc3ccc4c(c3c2C)C(=O)CC(C)(C)O4)c1OC | active: 16.4 µM | 
52 | c1ccc2c(NCC3CCCO3)nc(-c3ccncc3)nc2c1 (centres undefined) | inconclusive [inhibitor, single point] | 
53 | COC(=O)CN1C2=NCCCN2c2ccccc21 | inactive | 
54 | COc1ccc(CCNC(=O)CCCCn2c(=O)c3ccccc3n(Cc3ccc(Cl)cc3)c2=O)cc1OC | inconclusive [inhibitor, single point] | 
55 | Cc1c(C(=O)Nc2ccc(F)c(F)c2)oc2ccc(S(=O)(=O)N(C)C3CCCCC3)cc12 | active: 14.6 µM | 
56 | CCOC(=O)c1ccc(NC(=O)C(C)N(c2ccc(OCC)cc2)S(C)(=O)=O)cc1 (centres undefined) | inconclusive [inhibitor, partial curve] | 
57 | CC(=O)C1=C(C)NC(SCc2ccc(C#N)cc2)=C(C#N)C1c1ccco1 (centres undefined) | inconclusive [inhibitor, single point] | 
58 | COc1ccc(CNC(=O)c2cc3c(=O)n4cccc(C)c4nc3s2)cc1 | inactive | 
59 | CCCCNC(=O)C(Sc1ccccc1)c1ccccc1 (centres undefined) | inactive | 
60 | O=C(Nc1cc2ccc(O)cc2oc1=O)c1ccc(F)cc1 | inconclusive [inhibitor, partial curve, poor fit] | 
61 | Cc1cc(N2CCN(C)CC2)nc2ccc(NC(=O)c3ccc4c(c3)OCO4)cc12 | inactive | 
62 | Cc1ccc(Cl)c(NC(=O)CCl)c1Cl | inconclusive [inhibitor, single point] | 
63 | COc1ccc(C(=O)Nc2ccc(C)c(S(=O)(=O)N3CCCCCC3)c2)cc1 | inconclusive [inhibitor, single point] | 
64 | O=C(C[C@H]1C/C=C\CC[C@@H](Cc2ccc(F)cc2)C(=O)OCCNC1=O)NCCO | inactive | 
65 | O=C(O)c1ccc2[nH]c3c(c2c1)CCCC3 | inconclusive [inhibitor, full curve, poor fit] | 
66 | CCC(C)[C@H](NC(=O)N1CC(=O)Nc2ccccc21)C(=O)N[C@@H](C(=O)O)c1ccccc1 (some centres undefined) | inactive | 
67 | CN1CCN(CCc2nc3cc(NC(=O)COc4ccccc4)ccc3n2C)CC1 | inactive | 
68 | Cc1ccc(-c2nnc(CSc3nnc(COc4ccccc4)n3-c3ccccc3)o2)cc1 | inconclusive [inhibitor, single point] | 
69 | Cc1ccc(C(=O)CSc2cnc3ccccc3n2)cc1C | inconclusive [inhibitor, single point] | 
70 | COc1cccc(C(=O)OCC(=O)c2[nH]c(C)c(C(C)=O)c2C)c1 | inconclusive [inhibitor, single point] | 
71 | O=C(Nc1ccc(N2CCCC2)c(Cl)c1)c1ccc([N+](=O)[O-])o1 | active: 18.4 µM | 
72 | O=C(Nc1ccc(F)cc1)C1CCCN(c2ncnc3c2nc2n3CCCCC2)C1 (centres undefined) | active: 11.6 µM | 
73 | COc1ccc(CCN2C(=O)NC(NC(=O)CCc3ccccc3)(C(F)(F)F)C2=O)cc1OC (centres undefined) | inconclusive [inhibitor, single point] | 
74 | CC1Nc2ncnc(N3CCc4ccccc4C3)c2N(Cc2ccc(Cl)cc2)C1=O (centres undefined) | inconclusive [inhibitor, single point] | 
